According to PubChem BioAssay AID624417 (National Center for Advancing Translational Sciences (NCATS), 2012):
The campaign covered roughly 410,000 compounds. About 6,400 (1.6%) were called active. Inconclusive means that the source gave no clear call. Such entries were picked first, then a sample of the others. Calls follow the shape of the dose curve; as a rule, active = well fitted inhibition curve with a large enough effect; inconclusive = small, poorly fitted or top-dose-only effect; inactive = no such curve, though single readings can be large or run the other way. Potencies of inconclusive entries are left out as doubtful fits.

Target: Glucagon-like peptide 1 receptor (Homo sapiens) (UniProt P43220)
Experiment: qHTS of GLP-1 Receptor Inverse Agonists (Inhibition Mode); also: nearly all actives have a fitted effect of over 55% in size
Conditions: HEK293 GLP-1R CRE-luciferase, luminescence, 24 h, GLP-1R form is constitutively active; series mostly up to 38.3 µM
Summary of the method: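 Inverse agonism was detected as reduced cAMP-driven luciferase luminescence after 24 h compound treatment. The cells were HEK293 clones expressing constitutively active human GLP-1R with the reporter. Reporter-only and GPR119 cell lines served as counterscreen controls.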
Potency is read from the fitted curve at half-maximal effect; tags tell the direction and shape of the fitted curve.

UniProt P43220, sequence (P43220 whole entry, looked up): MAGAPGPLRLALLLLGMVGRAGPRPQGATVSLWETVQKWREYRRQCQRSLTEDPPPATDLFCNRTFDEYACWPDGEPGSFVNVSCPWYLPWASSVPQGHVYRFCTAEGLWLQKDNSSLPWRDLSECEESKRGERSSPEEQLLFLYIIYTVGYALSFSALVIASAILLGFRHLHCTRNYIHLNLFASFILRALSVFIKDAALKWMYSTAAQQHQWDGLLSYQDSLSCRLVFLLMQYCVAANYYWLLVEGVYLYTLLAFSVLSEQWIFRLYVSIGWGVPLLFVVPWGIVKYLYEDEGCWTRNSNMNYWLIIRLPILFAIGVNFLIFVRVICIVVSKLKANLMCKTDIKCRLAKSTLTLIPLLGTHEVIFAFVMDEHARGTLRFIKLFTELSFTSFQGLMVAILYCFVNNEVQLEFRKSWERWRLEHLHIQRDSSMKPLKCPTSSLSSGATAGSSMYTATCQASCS

SMILES | Potency
CCN(CCO)c1ccc(NC(=S)Nc2cccc(S(=O)(=O)N(C)C)c2)cc1 | inconclusive [inhibitor, full curve, poor fit]
CCCCCCCCCCCCN1C/C(=C\C(=O)OCC)c2ccccc2S1(=O)=O | inconclusive [inhibitor, partial curve, poor fit]
O=C1CC(N(CCc2ccccc2)C(=S)Nc2ccccc2)C(=O)N1c1ccccc1 (stereo not drawn) | inconclusive [inhibitor, full curve, poor fit]
Cc1ccc(Nc2cc(C)c3ccc(O)cc3n2)cc1C | inconclusive [inhibitor, partial curve]
O=C1Nc2ccccc2N=C(c2ccc3c(c2)OCO3)C1N(C(=O)c1ccnc2ccccc12)c1ccccc1 (stereo not drawn) | inconclusive [inhibitor, single point]
CC(=O)C[C@@H]1OC[C@H](CO)N1S(=O)(=O)c1ccc(C)cc1 | inactive
CSc1nsc(SCC(=O)N2CCCc3ccccc32)n1 | inconclusive [inhibitor, single point]
COc1ccc(NC(=O)CSc2nnc(-c3ccoc3C)n2CCc2ccccc2)cc1 | inconclusive [inhibitor, partial curve, poor fit]
COc1ccc(OC)c(NC(=O)CCN2CC(C)OC(C)C2)c1 (stereo not drawn) | inactive
CCc1ccc(NC(=O)c2ccccc2Br)cc1 | inconclusive [inhibitor, single point]
O=C(NNc1ccccc1)C(=O)NNc1ccccc1 | inconclusive [inhibitor, full curve, poor fit]
O=C(OC1CCOC1=O)c1cc(-c2cccs2)nc2ccccc12 (stereo not drawn) | inactive
COc1cc(F)ccc1-c1csc(C(O)c2ccc(F)cc2)n1 (stereo not drawn) | inconclusive [inhibitor, single point]
Cc1ccc(NC(=O)Cn2c(-c3ccc(F)cc3)cnc2SCC(=O)Nc2c(C)cccc2C)cc1 | inactive
COc1ccc(C(=O)NCC(c2ccc3c(c2)OCO3)N2CCN(c3ccc(OC)cc3)CC2)cc1 (stereo not drawn) | inconclusive [inhibitor, partial curve, poor fit]
COc1cccc(NC(=O)N2CCN(c3nc(-c4cccc(OC)c4)cs3)CC2)c1 | active: 12.6 µM
CCOCCCNC(=O)C(c1ccc(C)cc1)N(Cc1cccs1)C(=O)c1ccccc1O (stereo not drawn) | inconclusive [inhibitor, single point]
OC1(c2ccc(F)cc2)CSC(=Nc2cccnc2)N1Cc1ccco1 (stereo not drawn) | inconclusive [inhibitor, single point]
